Source: the supplement of paper PMC11417369
± gives the standard deviation of the averaged measurements. This is one part of the list.

These sequences were tested on PfAP2-EXP AP2 domain (GST-tagged) (assay: gcPBM binding intensity (ln(normalized median fluorescence intensity)); higher = stronger DNA binding).
Summary of the method: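 Binding intensity is defined as the maximum Masliner-normalised natural-log median intensity across replicate spots for either probe orientation. It was measured on an Agilent 4 × 180k array of primer-extended double-stranded 36-bp intergenic genomic probes and negative controls, to which GST-tagged P. falciparum DNA-binding domains made in E. coli were applied for 1 h in 1× PBS with 1% milk, 0.2 mg/ml BSA, 0.5% salmon testes DNA and 0.03% Triton X-100. Detection was by Alexa488 anti-GST antibody and scanning at 488 nm.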

| Sequence | gcPBM binding intensity (ln) |
| --- | --- |
| AGCACATATATATTATGTACATATAACTTCCCAGTG [XGTACX_site7095] | 8.64 ± 0.41 |
| CGATACTTTAGGTGTACACAAATATACATGAATGAG [CACACA_site5189] | 8.9 ± 0.29 |
| AAAAAAAAGGAAATAACACACATGTATTTATTTATA [CACACA_site4966] | 8.32 ± 0.29 |
| TATAATCATATTAAGGGTACATATGTGTAAATATTT [XGTACX_site6018] | 8.75 ± 0.38 |
| TTATTATAAATGTTTTGTACGTACATCCGAAAATAA [XGTACX_site2175] | 8.72 ± 0.29 |
| ATAATAATAATATAACCAAGGAAATATAATATTTGT [XGTACX_negctrl_site485] | 8.46 ± 0.47 |
| CTTTAAAACCGGTACTGTACACATAGTATTATTATC [XGTACX_site2602] | 8.79 ± 0.39 |
| GAACCATAAGGAACGACACACAAAGATAAATAAATA [CACACA_site3472] | 8.57 ± 0.47 |
| AAAAAAAAATTATTCACACATATATATATATATATA [CACACA_site5579] | 10.2 ± 0.33 |
| AAAAATAAAAAAAGCACACACATATATATATATATA [CACACA_site1885] | 10.2 ± 0.28 |
| ATAATATTTTAATGCACACACACAAAAAAAAAAAAA [CACACA_site2891] | 8.62 ± 0.43 |
| AAATTTGCTTTTATTTTACACACTTGCTCCTGTTGT [CACACA_site8276] | 8.97 ± 0.49 |
| AAACAATCTAAAAGTAGTACAATAAAAATATATATA [XGTACX_site5607] | 8.79 ± 0.23 |
| CATCTTATATAATCATGTACATATAGAGACTTCTTT [XGTACX_site7685] | 8.51 ± 0.35 |
| GGGGGAATTTACATGGGTACACATGTATTAAAAAAT [XGTACX_site4130] | 9.85 ± 0.35 |
| TTTTTCTTACATGAGTGTACACACTTTTTTTCAGAA [XGTACX_site138] | 8.93 ± 0.42 |
| TTATATGTATGGAGGTTTTTGTATATAGATATATAG [CACACA_negctrl_site177] | 8.36 ± 0.41 |
| AATATAAACAAACACACACACATATATATATATATT [CACACA_site5592] | 8.7 ± 0.4 |
| AAAAAAAAAAAAAATAGTACAATACCCAAATATAAC [XGTACX_site6684] | 8.86 ± 0.44 |

| Sequence | gcPBM binding intensity (ln) |
| --- | --- |
| ATAAAAAAAGGACACACACACATATATTTATTTATA [CACACA_site7438] | 8.66 ± 0.52 |
| ATGTCATATAATAGTACACACATGAAAATATAAATA [CACACA_site3215] | 8.76 ± 0.42 |
| GGTAGGGATTATACCACACACACATACACATAAATA [CACACA_site3179] | 8.71 ± 0.64 |
| ACTATTAAAATGAATACACACAAATATAAAAATATA [CACACA_site4145] | 8.53 ± 0.41 |
| ACGCTACATAAATACGTGCACATCTTTTTGTGTATA [GTGCAC_site9675] | 8.84 ± 0.11 |
| ATTTATTAATATCCCAGTACTCATGGGGAATAATGA [XGTACX_site4014] | 8.38 ± 0.34 |
| TTGTGTAAAGGTATTATTGTATTATTCAAAATAAAA [XGTACX_negctrl_site167] | 8.27 ± 0.38 |
| AATATATAATATATATGTACTTATATATAAAAGATA [XGTACX_site7635] | 8.49 ± 0.28 |
| TGGAGGAACCTCATATGTACGTATAAATATATATTT [XGTACX_site5603] | 8.8 ± 0.42 |
| CATATATATTTGTTCACACACACACTAATAAAAAAA [CACACA_site8787] | 8.62 ± 0.43 |
| TTAAAGCACCCATGCACACACACAAAGGAAAAGAAA [CACACA_site233] | 8.86 ± 0.47 |
| TGATAAATTAAAAATTGTACTATTATAATAATATAT [XGTACX_site6615] | 8.24 ± 0.37 |
| TTTATATAAATTTATTCACACAACTAATTTTTTAAA [CACACA_site4848] | 8.32 ± 0.41 |
| ATCAAATAGAGACACACACACCTAAACATAAAAGAA [CACACA_site7321] | 8.91 ± 0.39 |
| ACAATAAACATATATACACACACAAAAAAAAAAACA [CACACA_site8033] | 8.65 ± 0.4 |
| AAAAAATTATACCTTTGTACATAAATAAAATATTAT [XGTACX_site418] | 8.22 ± 0.31 |
| TATGTATATATTTACGCATGCTACTCTATTTTGAGA [TGCATGCA_site990] | 9.37 ± 0.2 |
| ACCCATTGCTCACGTGCACACATAGAAAAATAATTC [CACACA_site4389] | 9.205 ± 0.078 |
| ATAACATAAGGAAATACACACATATATAAGTATATA [CACACA_site778] | 8.56 ± 0.28 |

| Sequence | gcPBM binding intensity (ln) |
| --- | --- |
| AGGTTTCATTTAGCATGTACATATTATAAAAATTGT [XGTACX_site8448] | 8.77 ± 0.31 |
| TCTGTTAATATTTATACACACATATATATATATATA [CACACA_site1139] | 10.1 ± 0.38 |
| AAGATTACTTATATATGTACACATAATACAAATGTC [XGTACX_site520] | 8.39 ± 0.27 |
| TTTTAGAGTGGTATATATTAATTTTTAATAAAAAAA [CACACA_negctrl_site1652] | 8.05 ± 0.28 |
| TTTTTCATAAAAAAATAAAAAAAATTAACATAGAAA [XGTACX_negctrl_site11] | 8.48 ± 0.34 |
| ATAATATATACTATATGTACATATCTTTTCCTCTTT [XGTACX_site5553] | 8.81 ± 0.45 |
| TGTGCATAAATTTATGCACACATAAAAAAAAAAAAA [CACACA_site8954] | 8.85 ± 0.34 |
| AATAAAAGAAGACAGAGTACACAGGTTGTATTTTCC [XGTACX_site7208] | 8.73 ± 0.44 |
| ATAGTATCTGGTAGCTGTACGAGTCGTAGAGTGTAG [XGTACX_site2030] | 9.04 ± 0.38 |
| AGAAAGGTGGTATTAAAAGAATAACCTATGAATAAA [GTGCAC_negctrl_site325] | 8.53 ± 0.59 |
| TATAATAATAATTATTGTACGATTAGGTTAATTCAT [XGTACX_site1984] | 8.37 ± 0.23 |
| TGGGAAGGGTGGGAAACTTTATCAAAAACTTATTAC [GTGCAC_negctrl_site16] | 8.87 ± 0.51 |
| TATGTATTTTTTAAGTGTACCTATATATATATATAT [XGTACX_site7934] | 10.2 ± 0.3 |
| AAATAATATTTTTTTTTTTTTTTTTTTTTATGTTAT [CACACA_negctrl_site809] | 8.05 ± 0.42 |
| AAAAAAAAAAAAAAAACACACAAATCATAAATAAAT [CACACA_site478] | 8.57 ± 0.35 |
| TGGTAGTATATCATAGAAATCATTGTATAACAAATA [XGTACX_negctrl_site569] | 8.32 ± 0.38 |
| ATACAGTTGCATATGGTGCACGAATAATACACCTAT | 9.05 ± 0.23 |
| ATAGTCTTAATGACTACACACCTAACTATGCATGCA [CACACA_site5084] | 9.985 ± 0.078 |
